# Variants at the floor of the assay are shown more often than the library holds them.
# B1: TPR 5TU (parent)
# chain: GGAUCUUCUCGAUCUAACAAAAAAGACAAAUCUGCCACAAAGCUUGAGAGCAUCUUCGGAUGCAGAGGCGGCAGCCUUCGGUGGCGCGAUAGCGCCAACGUUCUCAACUAUGACACGCAAAACGCGUGCUCCGUUGAAUGGAGUUUAUCAUG
# Variants of: B1
# Experiment: polymerase ribozyme fitness, log enrichment relative to wild type (log ratio); higher = more active; in vitro selection for triplet polymerase activity
# In short: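 For each subunit of a heterodimeric triplet polymerase ribozyme, a mutant library was built by PCR and transcribed, then taken through a single in vitro selection round in triplicate. Selection involved annealing to a biotinylated primer, the partner subunit and triplets, incubation frozen at −7 °C, gel excision of extended constructs, capture on streptavidin beads and RT-PCR. Genotypes were retained after Illumina sequencing of inputs and outputs only with ≥10 input reads and ≥1 read in each output. Fitness is defined as the logarithm of a genotype's enrichment relative to wild-type enrichment, using inverse-variance-weighted averages across replicates, with the logarithm taken to base 2.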
row,Variant,polymerase ribozyme fitness (log ratio)
1,A22C C51G U55G C85U G86C C96U C149U A150G,≤ -4.2
2,A22C C51U C79G U82C G92A,≤ -4.2
3,A22C C51U G84U,-2.78
4,A22C C54A G88U C96G A98U G152U,≤ -4.2
5,A22C C69G G70C C85G,≤ -4.2
6,A22C C69G G81C,-1.85
7,A22C C75A C87A,≤ -4.2
8,A22C C75G G88U A91G A110G C116A G136A,≤ -4.2
9,A22C C76A G128U C129U,≤ -4.2
10,A22C C76G G92C C105G U145C,≤ -4.2
11,A22C C79G C95A G143C A150G,≤ -4.2
12,A22C C85G C129A U145C,≤ -4.2
13,A22C C85G U109A,-3.43
14,A22C C87U C116G C125U C149U,≤ -4.2
15,A22C C96A A97U U101C,-1.53
16,A22C C96U C108U A113U U146A U151G,≤ -4.2
17,A22C G25A C51U A66C C85G C93U C116A,≤ -4.2
18,A22C G25U U55C C85G A98C,≤ -4.2
19,A22C G34C G86U A106U,≤ -4.2
20,A22C G34U U55G G80C C95A,≤ -4.2
21,A22C G42C C69G A91U,≤ -4.2
22,A22C G42U A49G C51U G92A U130G,≤ -4.2
23,A22C G42U A73U G81C A91U C96U A107G G143C,≤ -4.2
24,A22C G46C A49C C125U,≤ -4.2

row,Variant,polymerase ribozyme fitness (log ratio)
1,A22C G50A G62A A66G C79A G84U,≤ -4.2
2,A22C G50U G67U G74U G92C C149G,≤ -4.2
3,A22C G59C G83A A89U C108A,≤ -4.2
4,A22C G62A G80U U90A C116G G143U A150U,≤ -4.2
5,A22C G62U A73U G88U C99U C118A U144C,≤ -4.2
6,A22C G74C C85U A91U U101C A106C U139C,≤ -4.2
7,A22C G74C G88U C103G,≤ -4.2
8,A22C G92C C114U A150C,≤ -4.2
9,A22C G92C G117C U148G,≤ -4.2
10,A22C G92C U109C U148A,-4.16
11,A22C U31C A41U U45A C54U C96U C118U G141A U144A A150U,≤ -4.2
12,A22C U31G G48A U109G C125U G136U,≤ -4.2
13,A22C U33A A40G C54U C99G,≤ -4.2
14,A22C U33A G50A A66U C93U G100C A138G C149A,≤ -4.2
15,A22C U44A G86U,≤ -4.2
16,A22C U53G C57A C95G U134G U144C,≤ -4.2
17,A22C U53G G62A C63U C87A A122G,≤ -4.2
18,A22C U55A C93G C99U C132G A142G,≤ -4.2
19,A22C U55G G67A U78A C93G C99A C149G,≤ -4.2
20,A22C U55G G83A G92U U148A,≤ -4.2
21,A22C U56A C57G G86U A142G,-3.37
22,A22C U61A C76A U78C C87A A147C,≤ -4.2
23,A22C U61C G80A A119U C125A,-2.69
24,A22C U78C A98G U102G U151G,≤ -4.2

row,Variant,polymerase ribozyme fitness (log ratio)
1,A22C U102G A110G,≤ -4.2
2,A22G A23C A98G A106C,≤ -4.2
3,A22G A23G A24C C63G G83A C103A A107U,≤ -4.2
4,A22G A23G G50U A52C C57U G59U C96A C99U C132A G143C,≤ -4.2
5,A22G A23U G65A G68A G83A A119C G126A,≤ -4.2
6,A22G A24U C27U A40G C87G U90A,≤ -4.2
7,A22G A24U G59C C96G A98U,0.453
8,A22G A24U U55A C75G C76A C95G G124U G136U,≤ -4.2
9,A22G A26G G42U A64C G65C G68A C76G G83U A138G G140A G141A,≤ -4.2
10,A22G A26G U55A C85A G136A U146A,≤ -4.2
11,A22G A28G C57A U61A G65U C125A,≤ -4.2
12,A22G A29U G50A U56G C87U C118U,≤ -4.2
13,A22G A37C C76G C85U,≤ -4.2
14,A22G A39C A47G C85A,≤ -4.2
15,A22G A39U A41C C43A G58C A60C C93U G112C A121C,≤ -4.2
16,A22G A40C A66C C96G C103G,≤ -4.2
17,A22G A41G A120G G141U,1.45
18,A22G A49U G58C U77C C87U U90C C95G U104A C116G,≤ -4.2
19,A22G A52G G58A G70A A97G C99A U109G A120C U135G G136A,≤ -4.2
20,A22G A52U C79A C93A G100C G143U U144A U146A A150U,≤ -4.2
21,A22G A64C G68U A91C A121U,≤ -4.2
22,A22G A66U C85U A115U U139G U148C,≤ -4.2
23,A22G A91U G133C,≤ -4.2
24,A22G C27A A29G C38U G50C C72U G84A C118A,≤ -4.2

row,Variant,polymerase ribozyme fitness (log ratio)
1,A22G C32U A37G A41C G71A C95U C96G U139C,≤ -4.2
2,A22G C35G C38A C95U A98G,≤ -4.2
3,A22G C35G U56A G74C C108A U146G,≤ -4.2
4,A22G C35U C93G A142C A150G,≤ -4.2
5,A22G C36A A119G,≤ -4.2
6,A22G C36G G81U A89C A97C C116A,≤ -4.2
7,A22G C38U A41C G58U G94C A97U A106U A119U G124A U151C,≤ -4.2
8,A22G C43U U44C C54A A73U C87U U104G C131A,≤ -4.2
9,A22G C54A C87A C105G,≤ -4.2
10,A22G C69A C87G C129A U130A,≤ -4.2
11,A22G C69G C95A C96G U139A A142C,≤ -4.2
12,A22G C72A G86C C87A A110U U127C C132A U146G,≤ -4.2
13,A22G C76U C87G C103A A113U A120G,≤ -4.2
14,A22G C85A C87G A89G G124C U139G,≤ -4.2
15,A22G C85U U145C A147C A150C,≤ -4.2
16,A22G C87G,≤ -4.2
17,A22G C87G A142C,≤ -4.2
18,A22G C93G C105G A110G G136U,≤ -4.2
19,A22G G25U A30U G50A C57A G70C C93G A113C,≤ -4.2
20,A22G G34U A49C,≤ -4.2
21,A22G G46C C87A U101G G141U,≤ -4.2
22,A22G G50C G71U C76A C85U G100C U144G,≤ -4.2
23,A22G G50C U101G A110U U145A,≤ -4.2
24,A22G G50U U56G G58U C76U A122G,-4.16

row,Variant,polymerase ribozyme fitness (log ratio)
1,A22G G65A A97U,-2.68
2,A22G G67A A91U C96U A110U A137U,≤ -4.2
3,A22G G70A G94C C123A A142U,≤ -4.2
4,A22G G71C A73C A119G,≤ -4.2
5,A22G G74C G94C C125U,≤ -4.2
6,A22G G80A C87G A89U G133U C149G,≤ -4.2
7,A22G G83A A91U G100U,≤ -4.2
8,A22G G83C A98U C114U,-3.19
9,A22G G84U U127G,≤ -4.2
10,A22G G86U G94C,≤ -4.2
11,A22G G92A C108G,≤ -4.2
12,A22G G117A,1.13
13,A22G U31C C32A C51U U61G C85U A147U,≤ -4.2
14,A22G U31C G94C,0.086
15,A22G U33A A52C G74C G143C,≤ -4.2
16,A22G U33A U55G G58C C79G A97G U134A,≤ -4.2
17,A22G U33C C35U A66C,≤ -4.2
18,A22G U33G A91G G92A G117A,≤ -4.2
19,A22G U33G C51A A66G C76A G94U C95G A98U U135A,≤ -4.2
20,A22G U45G G50A C54U G94C C131G A138U,≤ -4.2
21,A22G U53A A73U A98G U139A,≤ -4.2
22,A22G U53A C69U C75G G84U,≤ -4.2
23,A22G U56A A66U G88C C95G C118A U139A,≤ -4.2
24,A22G U56A C85A G126A U130A,≤ -4.2

row,Variant,polymerase ribozyme fitness (log ratio)
1,A22G U56A C96G U101C G143A U148A,≤ -4.2
2,A22G U56A G84U C103A,≤ -4.2
3,A22G U144C,0.51
4,A22U A23C A24C G48C G67U G86U C95G C96U C116U,≤ -4.2
5,A22U A23G A52G G59C C72A C87A G88U C149A,≤ -4.2
6,A22U A23G U61G G86A,≤ -4.2
7,A22U A23U G25A C38A G68U U78G G80U G92A G128A G141C G143C,≤ -4.2
8,A22U A24C A40U U55A C85A G117C G136U A138C,≤ -4.2
9,A22U A24C G34C U55A U56G C96U,≤ -4.2
10,A22U A24C U31C A47C U102G,≤ -4.2
11,A22U A24G U31A U56G C79U U90G C95U A97C A120U C125G,≤ -4.2
12,A22U A24U A52U C54A G94U U145G,≤ -4.2
13,A22U A26G A28C A37U U56A C96U A98U,≤ -4.2
14,A22U A26G C38U U56A G88U G136A,≤ -4.2
15,A22U A26G C85A C95U A115U,≤ -4.2
16,A22U A26U,-2.88
17,A22U A26U U56A G74C U102G,≤ -4.2
18,A22U A28G,-3.35
19,A22U A29C A47G U134C U139A,≤ -4.2
20,A22U A29G G70A,≤ -4.2
21,A22U A29U A40U G42C C43G C87A G140U,≤ -4.2
22,A22U A29U C85A,≤ -4.2
23,A22U A30C A39U C95U U148C,≤ -4.2
24,A22U A30C A73C A91G,≤ -4.2

row,Variant,polymerase ribozyme fitness (log ratio)
1,A22U A30G U82G G92U,≤ -4.2
2,A22U A30U C95U U134A,≤ -4.2
3,A22U A30U U31C A49C A52C C76A C79U C93G,≤ -4.2
4,A22U A37C G83C C114G,-3.92
5,A22U A37U A52G G59A C87G G88C C114U U134G G141U,≤ -4.2
6,A22U A37U C95U U146A,-1.67
7,A22U A39G A40U G68U G86A C96U A107U C116G,≤ -4.2
8,A22U A39U A52U G67U C95U C118U C125A A142G,≤ -4.2
9,A22U A39U U44G C51A G141C U146C A150G,≤ -4.2
10,A22U A40C C85U C93G U101G A107G,≤ -4.2
11,A22U A41C G70C U82G,≤ -4.2
12,A22U A41C G86U C93U G128U,≤ -4.2
13,A22U A41U,0.0369
14,A22U A47U U53G U55A C57U G68A G86C G143A,≤ -4.2
15,A22U A49C C75U G94A,≤ -4.2
16,A22U A49C G70C G80U A89C G92U A107U C125U,≤ -4.2
17,A22U A49U,-0.913
18,A22U A52C G58C G84U C99A,≤ -4.2
19,A22U A52C G65A C132G G140U,-3.17
20,A22U A52G C75U G83U U134C A142C,-3.51
21,A22U A52G U53A A107G,≤ -4.2
22,A22U A52G U56A G71C G83U A122U,≤ -4.2
23,A22U A60G A89G C95G G117A G143U,≤ -4.2

# Source: the RNAGym collection of RNA variant scans (doi:10.1073/pnas.2313332121)
